Reference: the supplement of paper PMC11876631
Positions count from the first letter of the chain named. Names may count otherwise. ± gives the standard deviation of the averaged measurements. Laboratory Escherichia coli strains with one amino-acid change in an essential protein, pooled on minimal glucose agar with carbenicillin or gentamicin at twice the control MIC (plus kanamycin and chloramphenicol for the plasmids), 48 h. Fold change of barcode share against drug-free plates; higher = less susceptible. Active = above 20 in both replicates (the paper's putatively resistant). '<' = one read or none on drug, '>' = one read or none on a drug-free plate. Shares are relative, so most strains fall below 1 when a few take over. Listed are strains with at least 15 reads on both drug-free plates, and hits; most hits rest on fewer reference reads. Replicate rank correlation about 0.5. Edits are read from barcodes.

B1: fabB L9Q (protein)
chain: MKRAVITGQGIVSSIGNNQQEVLASLREGRSGITFSQELKDSGMRSHVWGNVKLDTTGLIDRKVVRFMSDASIYAFLSMEQAIADAGLSPEAYQNNPRVGLIAGSGGGSPRFQVFGADAMRGPRGLKAVGPYVVTKAMASGVSACLATPFKIHGVNYSISSACATSAHCIGNAVEQIQLGKQDIVFAGGGEELCWEMACEFDAMGALSTKYNDTPEKASRTYDAHRDGFVIAGGGGMVVVEELEHALARGAHIYAEIVGYGATSDGADMVAPSGEGAVRCMKMAMHGVDTPIDYLNSHGTSTPVGDVKELAAIREVFGDKSPAISATKAMTGHSLGAAGVQEAIYSLLMLEHGFIAPSINIEELDEQAAGLNIVTETTDRELTTVMSNSFGFGGTNATLVMRKLKD
B2: fabB V12A (protein)
chain: B1 chain with Q9L, V12A
B3: fabB V12W (protein)
chain: B1 chain with Q9L, V12W
B4: fabB V12Q (protein)
chain: B1 chain with Q9L, V12Q
B5: fabB V12D (protein)
chain: B1 chain with Q9L, V12D
B6: argA L400Q (protein)
chain: MVKERKTELVEGFRHSVPYINTHRGKTFVIMLGGEAIEHENFSSIVNDIGLLHSLGIRLVVVYGARPQIDANLAAHHHEPLYHKNIRVTDAKTLELVKQAAGTLQLDITARLSMSLNNTPLQGAHINVVSGNFIIAQPLGVDDGVDYCHSGRIRRIDEDAIHRQLDSGAIVLMGPVAVSVTGESFNLTSEEIATQLAIKLKAEKMIGFCSSQGVTNDDGDIVSELFPNEAQARVEAQEEKGDYNSGTVRFLRGAVKACRSGVRRCHLISYQEDGALLQELFSRDGIGTQIVMESAEQIRRATINDIGGILELIRPLEQQGILVRRSREQLEMEIDKFTIIQRDNTTIACAALYPFPEEKIGEMACVAVHPDYRSSSRGEVLLERIAAQAKQSGLSKLFVQTTRSIHWFQERGFTPVDIDLLPESKKQLYNYQRKSKVLMADLG
B7: fabB I102Q (protein)
chain: B1 chain with Q9L, I102Q
B8: fabB I170A (protein)
chain: B1 chain with Q9L, I170A
B9: fabB I170W (protein)
chain: B1 chain with Q9L, I170W
B10: fabB V174A (protein)
chain: B1 chain with Q9L, V174A
B11: fabB V174W (protein)
chain: B1 chain with Q9L, V174W
B12: fabB V174D (protein)
chain: B1 chain with Q9L, V174D

Target: Escherichia coli (laboratory strain)
Experiment: barcode share on antibiotic plates over drug-free plates; higher = less susceptible
Method: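 A pool of E. coli strains, each edited to carry one amino-acid change in an essential protein, was grown for 48 h on minimal glucose agar with or without antibiotic; strain barcodes were sequenced; mean of two replicates.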

[1] = antibiotic: carbenicillin, 2× MIC (3.1 µg/mL)
[2] = antibiotic: gentamicin, 2× MIC (MIC 0.45 µg/mL)

Row | Protein | fold change of barcode share [1] | fold change of barcode share [2]
1 | B1 | 0.202 ± 0.068 | 0.517 ± 0.59
2 | B2 | 0.265 ± 0.013 | 0.24 ± 0.3
3 | B3 | 0.505 ± 0.26 | 0.217 ± 0.29
4 | B4 | 0.285 ± 0.16 | 0.078 ± 0.079
5 | B5 | 0.12 ± 0.056 | –
6 | B6 | 0.4474 ± 0.00065 | < 0.0077
7 | B7 | 0.25 ± 0.13 | –
8 | B8 | 0.473 ± 0.26 | 0.0132 ± 0.007
9 | B9 | 0.683 ± 0.42 | 0.0694 ± 0.049
10 | B10 | 0.372 ± 0.059 | < 0.00682
11 | B11 | 0.287 ± 0.16 | < 0.00671
12 | B12 | 0.246 ± 0.071 | 0.00923 ± 0.0039
